# The supplement of paper PMC11417369
# ± gives the standard deviation of the averaged measurements. Some of the results follow.
# Test system: PfAP2-EXP AP2 domain (GST-tagged)
# Experiment: gcPBM binding intensity (ln(normalized median fluorescence intensity)); higher = stronger DNA binding
# Summary of the method: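 Binding intensity values are the highest Masliner-normalised natural-log median intensity among replicate spots of either probe orientation. The binding step lasted 1 h in 1× PBS with 1% milk, 0.2 mg/ml BSA, 0.5% salmon testes DNA and 0.03% Triton X-100, using GST-tagged P. falciparum DNA-binding domains expressed in E. coli on an Agilent 4 × 180k array of primer-extended double-stranded 36-bp intergenic genomic probes plus negative controls. Alexa488 anti-GST antibody and a 488 nm scan detected bound protein.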
row,Sequence,gcPBM binding intensity (ln)
1,ATATACAGAAAAAATTAAAATAAATATGCAAAACAA [CACACA_negctrl_site704],8.86 ± 0.32
2,AATATACGATTGTCATTCATACATTGTTAACATAGT [CACACA_negctrl_site1151],8.61 ± 0.27
3,ACATAGTAAATATTATGTACATAATATATACATTTA [XGTACX_site7500],8.46 ± 0.33
4,TACAATGAACATGAAACACACAAAAAAAAAAAAAAA [CACACA_site1544],8.27 ± 0.58
5,TTTACTTTTTTTATATATTATTTATTATATAATATA [CACACA_negctrl_site211],8.43 ± 0.39
6,TAAAAATGATCAAAGGGTACAGTATTAATTAAAAAA [XGTACX_site1079],8.63 ± 0.52
7,TACATATATATAATATATATATCATCATATTTTCTT [XGTACX_negctrl_site478],8.26 ± 0.36
8,CTTAAACTTTTAAATACACACATACAGACATACACA [CACACA_site6401],8.84 ± 0.28
9,ATATGTACTATACGCACACACACTCACATATTTATA [CACACA_site7510],9.13 ± 0.35
10,TTTATTTATATAATTACACACATATATACTCAAATG [CACACA_site5543],8.36 ± 0.33
11,ATAGGGTTTCTACTTTAACATTTTTGAAATATTATA [GTGCAC_negctrl_site260],8.44 ± 0.36
12,TTCTTAATTCATACCATCAAAACATTTATTCATATC [CACACA_negctrl_site43],8.52 ± 0.5
13,TATTTAGACATAACAAATAGACTAACAAAAGATTTA [GTGCAC_negctrl_site614],8.28 ± 0.085
14,ATAATAAATACACTAGTGCAAAATAATATATGTACT [GTGCAC_site9707],9.12 ± 0.31
15,TATTATAAATAAATAGAAAAAAAAATGATAAATGGA [CACACA_negctrl_site865],8.62 ± 0.42
16,TATATATACTTAGAAACACACAAAAATATTTTATAA [CACACA_site2578],8.59 ± 0.42
17,TAATTAGTTTTTACTTTTTTTTTTTTTTTTCTATAT [CACACA_negctrl_site1024],8.13 ± 0.46
18,ATAATCCTGAAACACACACACACACCCATAAATAAA [CACACA_site481],8.65 ± 0.59
19,TTATGTATATTATAAATTAATACCTTTAAATTAATA [CACACA_negctrl_site67],7.88 ± 0.28
20,TATAACTTATTTTTTAGTACATATTATAGTTCATTT [XGTACX_site8649],8.6 ± 0.33
21,TTTATTTAAAATAAGTGTACTAGAAAAATTAAGCAG [XGTACX_site4982],8.65 ± 0.35
22,TAAAAGGAGACATATACACACATATATATATATATA [CACACA_site5539],10.1 ± 0.42

row,Sequence,gcPBM binding intensity (ln)
1,ATTCCTCATTAATATTCTTATTTTTTAATTCACATT [XGTACX_negctrl_site329],8.87 ± 0.35
2,TGTGATTATGATAAAAGTACAGAAATAAATATACTA [XGTACX_site38],8.46 ± 0.29
3,TTTTATAAAGAACACAGACACACAAAGAAAGAACCA [CACACA_site4174],9.02 ± 0.6
4,ATAAAAAGCTAAAAAGTGCAAAAAGTAAATATTTAA,9 ± 0.44
5,ACCAATTTGACAAACTGTACAAAAAAAATATTAAAA [XGTACX_site1186],8.44 ± 0.5
6,TACACAAAAATAAACACACACACATATATATATATA [CACACA_site1000],10 ± 0.22
7,TATATATTCCTCCATAGTACAATAATAAAGATAAAA [XGTACX_site5785],8.52 ± 0.49
8,CTTTCCCTATATTGCTGTACATGTATTCAAAAAACA [XGTACX_site353],9.1 ± 0.42
9,CGCGAACATACATACACACACATATATATATCTGTA [CACACA_site4277],8.79 ± 0.47
10,AACATTAATTTCCTATGTACTTAATATATTGTTTTT [XGTACX_site4440],8.81 ± 0.4
11,AACACCCAAAAACACACACACATACATACATACATA [CACACA_site4411],8.7 ± 0.35
12,ATTTATATATATGTATGTACGTATGTGTGTATATGT [XGTACX_site7587],9.02 ± 0.33
13,ATTATAAATATATTTTGTACTTAAAAGGAAAAAAAA [XGTACX_site55],8.28 ± 0.4
14,ATTACATGTATACATGTCAACACGTATAAAAAAAAA [CACACA_negctrl_site1154],8.64 ± 0.49
15,TACACAAACAGACACACACACACACGCGCACAAAAA [CACACA_site7192],8.73 ± 0.54
16,AATAAGCATAGACACACACACAAAAAAAAAAAAAAA [CACACA_site6476],8.21 ± 0.49
17,AATAAATAGAGGAAATGTACATATAAAAATAATTTC [XGTACX_site2454],8.88 ± 0.35
18,GATTATCTTCAAGTATGTACACACTATATATAATAA [XGTACX_site5108],8.81 ± 0.26
19,TTAACATCTTCGTTGACACACAAAAAAAAAAATAAT [CACACA_site1819],8.35 ± 0.47
20,GCACGAAACAATGTATATATATATATATATATATAT [GTGCAC_negctrl_site412],10.1 ± 0.45
21,TTCTTTATGGAAGTGTAAAAAAAGAAATACTTTTTT [CACACA_negctrl_site915],8.03 ± 0.41
22,ATATAACAGAAACACACACACATATATATATATTAT [CACACA_site4140],8.9 ± 0.53

row,Sequence,gcPBM binding intensity (ln)
1,ATAAATGATAGTAAAAGTACACAAAATGTTTTAAAA [XGTACX_site1623],8.53 ± 0.45
2,TATTTTTATATATAATCACACATTGGAATGTTCTAA [CACACA_site5540],8.46 ± 0.37
3,TATATATATCTGTATACACACATATGTATGTTATGT [CACACA_site6090],8.7 ± 0.38
4,ATATTTTTTCTGAACGGTACAGAATTTTTCAAGATT [XGTACX_site484],8.57 ± 0.43
5,AAGAAAAGTAAATATGCATGTAGGGTAGGTTATTTT [TGCATGCA_site46],8.94 ± 0.23
6,CCTTTTTCTAATGGATGTACTTATTATATACATTAT [XGTACX_site281],8.55 ± 0.31
7,TTATTTTATCACACATGTACATATGTTAATTTTTTT [XGTACX_site5598],8.84 ± 0.33
8,AAATTTATATATAGTTGTACAAAAATATGTTTCGTA [XGTACX_site4801],8.51 ± 0.34
9,TGAATAATCAATAGTACACACATATAAATATATATA [CACACA_site2813],8.44 ± 0.22
10,AAAATAAAAAGAAATAAATTAACAGTAAGGAAAAAA [CACACA_negctrl_site1105],8.81 ± 0.43
11,ATGCGTTCATACATACATACATACATACAATTTGTA [TGCATGCA_negctrl_site50],8.74 ± 0.4
12,GAACAAATTACAAGTTGTACTTTATGTAAATTATTA [XGTACX_site5304],8.26 ± 0.28
13,TTTTTATAACAAAGTATTTAAATAATTTATACTAAT [TGCATGCA_negctrl_site104],8.05 ± 0.39
14,AACATTTATATTTAAGTGCAGATGCTGTAATTTAGA,8.49 ± 0.36
15,TGCTCATGAGGTCAGAGTACAAAATAGTAAATGTAT [XGTACX_site2973],8.71 ± 0.42
16,TAATTCATCCTATGCACACACAATACCAAAATGTGC [CACACA_site4269],8.57 ± 0.44
17,TAATTTATTAATAATTGTACAGATATTATACTTAAA [XGTACX_site8947],8.15 ± 0.28
18,TTTTGAATTAAACAAGCATGCTTTATTTACTTCTTA [TGCATGCA_site289],8.54 ± 0.47
19,TTTTTTTTTTTTTTTCTTTTTTATTCTCACAAAAAA [CACACA_negctrl_site1790],8.23 ± 0.38
20,TTTATTTTTATTTTTGTGCACGGGATTAAATAAAAG [GTGCAC_site9842],9.53 ± 1
21,AAAAAAAAAAAAAATAATAAATAAATAAATAAATAA [GTGCAC_negctrl_site505],8.76 ± 0.099
22,CGTAGCCGCACTAACACACACAAATATACGCAATCA [CACACA_site2898],8.71 ± 0.32

row,Sequence,gcPBM binding intensity (ln)
1,AAAAATAAAAAAAAATTAAAATATATATATTTTGTT [TGCATGCA_negctrl_site102],8.52 ± 0.28
2,AGGAAAAAAAGTAGCACACAAATATTTATAATATAT [CACACA_site2437],8.64 ± 0.52
3,AACATATTTATATACACACACATATTTATATGAAAT [CACACA_site6268],8.39 ± 0.33
4,GAGAGGATACATACATGTACATAAATATTTTATTTT [XGTACX_site5129],8.54 ± 0.28
5,TTACTATTTCACTGTGCATGCAACAAAAATCTATCT [TGCATGCA_site808],10.2 ± 0.31
6,ATTAGTTTATATGAATGATTTTTCTTTTTTTTTTTT [CACACA_negctrl_site88],8.19 ± 0.49
7,ATATTTTGGGTGTTGTTTTTTTTTAAAACTCTTTAA [CACACA_negctrl_site1255],8.92 ± 0.34
8,GATTTATATTTTAAAAGTACAAGTTAAAATAAAAGT [XGTACX_site7059],8.74 ± 0.33
9,TTTGATTTTAATGTGTGTACACATTTATTTATATAA [XGTACX_site4806],8.56 ± 0.34
10,ATATAATATCTGTATACACACATATTATATAATATT [CACACA_site5940],8.62 ± 0.4
11,ATATAAGTATAATTATGTACTTATACTTATATAAAT [XGTACX_site5585],8.29 ± 0.37
12,AATATAAGATTATTATGTACATAATAAATATGTATT [XGTACX_site4773],8.46 ± 0.36
13,ATAATTATATGATGAGTGCACAATAAAAATATCGTT [GTGCAC_site9920],9.01 ± 0.014
14,GGTCATCATCGGTATTGTACAAAAATGTGAAAATTA [XGTACX_site639],8.87 ± 0.37
15,CATATTAATACAGAATGTACGGATAACAAACTGTTT [XGTACX_site7935],8.38 ± 0.22
16,TTTTTTTTTTTGGTTACACACATTTGTATATTCTCA [CACACA_site134],8.69 ± 0.49
17,CCATAACTCCTATGCACACATAAATATTACAGAGAT [CACACA_site5984],8.61 ± 0.37
18,TTTTATTTAGGAGGTGCATGTAATACGGAACATAAT [TGCATGCA_site827],9.275 ± 0.035
19,CATATAATAAATAATACACACATATTGGAAATATAT [CACACA_site3212],8.57 ± 0.23
20,AAAGGTATATATGTGTGTACATATATATATATATAT [XGTACX_site5629],10 ± 0.4
21,TTTATTTATTTATATTTTTTTATATAATTTATATAT [GTGCAC_negctrl_site301],8.31 ± 0.29
